Experimental data: article PMC4336329 (PLoS ONE, 2015)
Among all 310,000 compounds or so, about 2,200 (0.71%) showed an effect of 50% or more. The effect is printed as a negative number. The list shows a part of the results.

Each molecule was assayed against human ether-à-go-go-related gene (hERG) potassium channel (human, UniProt Q12809) (assay: primary screen, population patch clamp on CHO cells stably expressing hERG).
human ether-à-go-go-related gene (hERG) potassium channel, sequence (Q12809 whole entry, looked up): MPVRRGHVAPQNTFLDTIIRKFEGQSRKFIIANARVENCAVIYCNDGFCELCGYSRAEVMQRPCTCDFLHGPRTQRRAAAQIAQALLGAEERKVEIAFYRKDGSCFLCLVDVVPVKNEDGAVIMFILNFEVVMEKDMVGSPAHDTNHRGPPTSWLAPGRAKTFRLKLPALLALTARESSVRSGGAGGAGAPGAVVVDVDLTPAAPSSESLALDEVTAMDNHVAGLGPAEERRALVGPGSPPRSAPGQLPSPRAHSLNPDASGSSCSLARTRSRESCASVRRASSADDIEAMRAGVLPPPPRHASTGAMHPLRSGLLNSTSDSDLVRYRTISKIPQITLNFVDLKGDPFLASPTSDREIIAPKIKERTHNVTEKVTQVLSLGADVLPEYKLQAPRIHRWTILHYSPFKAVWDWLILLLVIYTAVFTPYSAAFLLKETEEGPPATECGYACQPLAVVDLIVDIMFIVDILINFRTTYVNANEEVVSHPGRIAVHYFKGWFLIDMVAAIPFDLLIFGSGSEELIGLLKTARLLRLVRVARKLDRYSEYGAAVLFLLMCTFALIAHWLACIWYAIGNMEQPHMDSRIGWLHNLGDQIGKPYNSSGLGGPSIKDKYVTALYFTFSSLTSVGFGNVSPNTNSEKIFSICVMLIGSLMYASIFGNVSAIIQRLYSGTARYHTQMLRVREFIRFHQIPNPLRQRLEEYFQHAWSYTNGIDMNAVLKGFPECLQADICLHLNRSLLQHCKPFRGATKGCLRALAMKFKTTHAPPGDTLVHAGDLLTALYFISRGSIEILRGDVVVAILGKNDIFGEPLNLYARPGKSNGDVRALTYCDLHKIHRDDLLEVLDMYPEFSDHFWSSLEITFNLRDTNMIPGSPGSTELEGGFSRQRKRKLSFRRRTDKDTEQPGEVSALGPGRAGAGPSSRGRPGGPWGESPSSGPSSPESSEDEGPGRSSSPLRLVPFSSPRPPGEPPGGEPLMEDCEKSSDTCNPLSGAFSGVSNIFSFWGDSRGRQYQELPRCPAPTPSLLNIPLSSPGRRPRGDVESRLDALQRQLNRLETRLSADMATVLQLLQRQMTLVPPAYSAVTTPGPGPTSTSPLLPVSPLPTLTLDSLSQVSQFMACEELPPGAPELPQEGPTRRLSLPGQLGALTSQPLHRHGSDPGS

| Compound | hERG current change (%, negative = inhibition) at 1uM [%] |
| --- | --- |
| COc1ccc(N(CC(=O)NCCSCc2ccc(C)cc2)S(=O)(=O)c2ccccc2)cc1 | 7.95 |
| CCCCOc1cccc(OCCCC)c1C(=O)Nc1cc(C)on1 | 12.9 |
| COc1ccccc1C(=O)C1CCCN(C(=O)C2=CC(=O)CC(C)(C)O2)C1 (stereo not shown) | 17.5 |
| COCCn1c(N)c(N(Cc2ccccc2)C(=O)CSCC(=O)Nc2ccc(OC)cc2)c(=O)[nH]c1=O | 12.4 |
| CCOC(=O)N1CCC(NC(=O)Cn2cccc2C(=O)c2ccccc2)CC1 | 10.7 |
| CN(c1ccccc1)S(=O)(=O)c1ccc(NC(=O)c2ccccc2C(=O)O)cc1 | 13.6 |
| COc1ccc(S(=O)(=O)NCCc2c[nH]c3ccc(C)cc23)cc1 | 14.2 |
| CCn1c(SCC(N)=O)nnc1-c1ccc(S(=O)(=O)N2CCN(C)CC2)cc1 | -0.273 |
| COc1ccc(OCC(O)Cn2ccnc2C)cc1 (stereo not shown) | 8.31 |
| COC(=O)c1cc2sccc2n1CC(=O)Nc1ccc(OC)c(OC)c1OC | 9.49 |
| CCCc1nc2ccc(NC(C)=O)cc2c(=O)n1Cc1ccc(Cl)cc1 | 14.3 |
| C/C(=N\NC(=O)CCn1nnc2ccccc21)c1cccs1 | 13.3 |
| CC(=O)c1ccc(S(=O)(=O)N2CCNCC2)cc1.Cl | 13.3 |
| O=C(c1ccc(-c2ccc([N+](=O)[O-])cc2)o1)N1CCCCC1 | -10.5 |
| COc1cc(/C=C2/C(=N)N3C=CSC3=NC2=O)ccc1OCCCOc1cc(C)ccc1C | 9.13 |
| CNC(C)C(=O)NC(C(=O)N1CCCC1C(=O)NC1CCCc2ccccc21)C(C)C.O=CO (stereo not shown) | 13 |
| O=S(=O)(NCc1csc(-c2cccnc2)n1)c1ccc2c(c1)OCCO2 | 5.24 |
| CNC(=O)COC(=O)c1cc(-c2ccco2)nc2ccccc12 | 4.53 |
| Cc1cc(Cl)ccc1OC(C)C(=O)NN=C1CCCCCC1 (stereo not shown) | 9.5 |
| O=C(CCN1CCN(c2ccccc2F)CC1)Nc1ccc(F)cc1 | 14.4 |
| Cc1ccc(NC(=O)C2C3/C=C\CCCCC32)cc1 (stereo not shown) | 15.7 |
| CC(=O)Nc1ccc(NC(=O)CN(c2ccc(C(C)C)cc2)S(=O)(=O)c2ccccc2)cc1 | 25.3 |
| CCOC(=O)C1C(=O)CC(C)(O)C(C(=O)OCC)C1c1ccc(NC(C)=O)cc1 (stereo not shown) | 12.5 |
| N#C/C(=C\c1ccc[nH]1)C(=O)Nc1ccccc1Cl | 5.32 |
| O=S(=O)(NCC1CC1)c1cccc(S(=O)(=O)N2CCCC2)c1 | 15.6 |
| COc1ccc(CCNS(=O)(=O)CCNC(=O)c2ccc3c(c2)OCO3)cc1 | 9.14 |
| CCCCn1c(N)c(N(CCOC)C(=O)COc2ccc(Cl)cc2)c(=O)[nH]c1=O | 19.5 |
| NC(=O)c1ccccc1NC(=O)/C=C/c1ccccc1 | 19.7 |

| Compound | hERG current change (%, negative = inhibition) at 1uM [%] |
| --- | --- |
| COc1ccc(C2NC(=S)NC3=C2CCCC3=C2SCCS2)cc1 (stereo not shown) | 16.2 |
| COC(=O)C1CCN(C(=O)Cc2ccc(Br)cc2)CC1 | 10.4 |
| Cc1cc(C)nc(SCC(=O)N/N=C\C(Br)=C\c2ccccc2)n1 | 17.5 |
| CCOc1ccc(C(=O)Nc2sc3c(c2C(=O)OC)CC(C)(C)NC3(C)C)cc1 | -0.517 |
| O=C(O)Cc1ccc(NC(=O)c2ccc(NC(=O)C3CC3)cc2)cc1 | 0.396 |
| Cc1cc(C)c(C(N)=O)c(SCC(=O)c2cc(C)c(C)cc2C)n1 | 10.8 |
| Cc1c(N)c(C(C)(C)C)cc(C(C)(C)C)c1[N+](=O)[O-] | 2.67 |
| CCC(=O)N1c2ccc(S(=O)(=O)NCc3ccco3)cc2CC1C (stereo not shown) | -5.05 |
| COc1ccc(C(CNC(=O)c2oc3cc(C)c(C)cc3c2C)N2CCCCC2)cc1 (stereo not shown) | 17 |
| Cc1cc(C(=O)Nc2cccc(C)c2C)n(-c2ccccc2)n1 | 10.9 |
| C=CCSc1nc2sc3c(c2c(=O)n1-c1ccccc1)CCN(C)C3 | 7.81 |
| Cc1ccc(-c2cc(C(=O)OCC(=O)N(C)C3CCS(=O)(=O)C3)c3ccccc3n2)c(C)c1 (stereo not shown) | -0.925 |
| O=C(COc1ccc(Cl)cc1)NCCSCc1ccccc1Cl | 2.57 |
| CC1Oc2ccccc2C=C1C1/C(=C(/O)c2ccccc2)C(=O)C(=O)N1CCCN(C)C (stereo not shown) | 12.7 |
| O=C(O)CCCCCN1C(=O)/C(=C/c2ccncc2)SC1=S | 17.9 |
| COC(=O)C(NC(=O)c1ccc(OC)cc1)(Nc1ncc(S(=O)(=O)c2ccc([N+](=O)[O-])cc2)s1)C(F)(F)F (stereo not shown) | 13 |
| O=C(CCn1ccnc1)Nc1nc2ccccc2[nH]1 | 12.7 |
| O=C(NCC(=O)N1CC=C(c2ccccc2)CC1)c1ccco1 | -50.9 |
| Cc1cccc(-n2c(=O)c(C#N)cc3c(=O)n4ccccc4nc32)c1 | 2.36 |
| Cc1ccnc(NC(=O)c2ccc(S(=O)(=O)N3CCCCC3)cc2)c1 | 6.85 |
| Cc1cc(C)c(C(=O)CC2(O)C(=O)Nc3ccccc32)cc1C (stereo not shown) | 8.09 |
| O=C(CN1CCN(Cc2ccc(Cl)cc2)CC1)N1CCc2ccccc21 | -32.1 |
| O=C1CCC([N+](=O)[O-])C(c2cc3c(cc2Br)OCO3)N1 (stereo not shown) | 7.57 |
| CC(C)N(C)Cc1cn(C)nc1-c1ccc(Oc2ccccc2)cc1 | 3.93 |
| COC(=O)c1ccsc1NC(=O)c1ccc2c(c1)OCCO2 | 8.13 |
| C=CCOc1cccc(C2C(C(=O)c3ccco3)=C(O)C(=O)N2Cc2ccco2)c1 (stereo not shown) | 15 |
| Cc1c(C(=O)NCc2ccc3c(c2)cc(C)n3C)cccc1[N+](=O)[O-] | 9.17 |
